Out of some 150,000 compounds screened, about 540 (0.36%) showed an effect of 50% or more. This is one part of the list.

In the assay the test system is Plasmodium falciparum. The assay can be described thus: Primary screen in NF54 nanoGlo assay, in single point, at 2uM, 72h; a lower Z score goes with more inhibition. The conditions noted are these: timepoint 72 hour. It counts as functional, Erythrocyte.
For orientation: % Inhibition means the change of the read-out against control, counted positive when it falls. On to `CN1CC(C(=O)N2CCCC2c2cccc3c2OCCO3)CC1=O` (stereo not drawn), for which the “% Inhibition” value is recorded as -5% and the Z score stood at 0.9.
For `CN(CCc1cn[nH]c1)Cc1cnc2ccccc2c1` the same measures were -6% and 1.24.
For `Fc1cccc(-c2noc(C3(c4cccc(Cl)c4)CCOCC3)n2)c1` the same measures were -9% and 1.74.
In the case of `Cc1c(CC(=O)NC2CC2)c2c(n1Cc1ccccc1F)CCCC2=O`, the “% Inhibition” value was -3% and the Z score is given as 0.52.
For `CCCS(=O)(=O)NCC1(N2CCOCC2)CCCCC1`, the “% Inhibition” value was -1% and the Z score came out at 0.16.
For `COC[C@H](Cc1ccccc1)NCc1ccc(CN2CCCC2)cc1` the same measures were 0% and -0.04.
For `COc1ccccc1N1CCN(c2snnc2C(N)=O)CC1`, in that order: -29% and 3.44.
On to `Cc1cc(C(=O)Nc2nc(-c3ccc4c(c3)CCC4)n[nH]2)no1`, for which the “% Inhibition” value is given as 33% and the Z score is -0.69.
For `O=S(=O)(Nc1cnc(N2CC3CCC(C2)O3)nc1)c1ccco1`, in that order: 0% and 0.04.
For `CC(C)C(=O)N1CCN(c2ccc3c(c2)OCO3)C(=O)[C@@H]1C` the same measures were -14% and 2.42.
Turning to `O=C(c1cc(-c2ccccc2F)n[nH]1)N1CCC[C@@](O)(CO)CC1`, the “% Inhibition” value was -8% and the Z score is on record as 1.38.
On to `CN(C)c1nn(CC(=O)Nc2ccc3c(c2)OCO3)c(=O)c2ccccc12`, for which the “% Inhibition” value is 5% and the Z score is -0.79.
For `CCC(C)(C(=O)NC1CCCC1)N(C(=O)c1cccs1)C1CCCO1` (stereo not drawn) the same measures were 41% and -5.33.
For `COC(=O)N1CCC(CNC(=O)c2ccc(Br)o2)CC1`, in that order: -8% and 1.27.
For `CCOc1cc(CNC2CC(F)(F)C2)ccc1OC`, in that order: -2% and 0.38.
On to `Cc1nccc(N2CCC[C@H](CNC(=O)c3ccoc3)C2)n1`, for which the “% Inhibition” value is -19% and the Z score is recorded as 2.04.
For `CN1CCC(NC(=O)c2nccnc2N)C1c1ccc(Cl)c(F)c1` (stereo not drawn) the same measures were -1% and 0.09.
For `C[C@@H](c1cccc(Cl)c1F)N1CCCn2nncc2C1`, in that order: -8% and 0.67.
For `O=C(CC1CCNCC1F)Nc1nc(-c2ccc(OC(F)F)cc2)cs1` (stereo not drawn), in that order: -11% and 1.8.
In the case of `CC(C)[C@H](NC(=O)[C@H]1CC[C@H](Cn2nnc3ccccc3c2=O)CC1)C(=O)O`, the “% Inhibition” value is given as -12% and the Z score was 1.62.
For `CC(C)[C@@](C)(O)CNC(=O)c1ccc(Cl)cc1Br`, in that order: 11% and -2.04.
In the case of `CN1CC[C@H](N2CC3(CCC2=O)CCN(C(=O)c2ccc(O)cc2)CC3)C1`, the “% Inhibition” value is given as 8% and the Z score is on record as -1.07.
For `CCN(CC)CCN[C@@H](C)c1cccc(OC)c1`, in that order: -5% and 0.46.
With `C[C@@H](C(=O)NCC(F)(F)F)N(C)CCc1ccc(F)cc1`, the “% Inhibition” value was -14% and the Z score came to 1.7.

The record behind these values is ChEMBL document CHEMBL4888484, “Replenishing the malaria drug discovery pipeline: Screening and hit evaluation of the MMV Hit Generation Library 1 (HGL1) against asexual blood stage Plasmodium falciparum ,using a nano luciferase reporter read-out” (2022).
